Data from the supplement of paper PMC11417369.
± gives the standard deviation of the averaged measurements. This is one part of the list.

These sequences were tested on PfAP2-I AP2 domain 3 (GST-tagged) (assay: gcPBM binding intensity (ln(normalized median fluorescence intensity)); higher = stronger DNA binding).
In short: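 Each value is the highest Masliner-normalised natural-log median intensity across replicate spots of either orientation of a probe. The probes were primer-extended double-stranded 36-bp intergenic genomic sequences on an Agilent 4 × 180k array, alongside negative controls, exposed for 1 h to GST-tagged P. falciparum DNA-binding domains expressed in E. coli. Bound protein was picked up with Alexa488 anti-GST antibody and scanned at 488 nm.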

Row | Sequence | gcPBM binding intensity (ln)
1 | CAATTTGGTGTACAGGTGCACATGCCTCACGATAAA [GTGCAC_site9650] | 10.2 ± 0.51
2 | AAAAAAAAAAAAAAATGTACATATTAAGTATAATTA [XGTACX_site4616] | 8.1 ± 0.47
3 | GAAAAATGTAAATACATATATGTACACAAATATATA [GTGCAC_negctrl_site557] | 7.74 ± 0.44
4 | TTAGCTCAATTTTTGGGTACACACAAATGTATAATA [XGTACX_site5003] | 7.71 ± 0.3
5 | AATATTTATAAATTTACACACACACGGGTGAACATA [CACACA_site6979] | 7.79 ± 0.62
6 | TTTAATTCCATAAGTAAACACACAAATGCCAAAATT [CACACA_site9049] | 8.04 ± 0.7
7 | ATTCTAAATTAAAATACACACATATATACATAATAT [CACACA_site2792] | 7.76 ± 0.48
8 | TTCTGCAGCAATGTTTTTTTTAAATATTTATATGGT [CACACA_negctrl_site1815] | 8.16 ± 0.52
9 | AAAAAAATAACAAAGTGTACTTTTATATTTTACATA [XGTACX_site8954] | 7.67 ± 0.29
10 | ACCCATTTTAATTTAGTGCACATTTTACCTTTATAC | 11.4 ± 0.35
11 | GCTAGTTTTTTTTGGCGTACAGTACCGGTTTACTTT [XGTACX_site2606] | 8.52 ± 0.31
12 | TTTTTTTCTTTTTCAAAAAAAAAAAAAAAAAAAATA [GTGCAC_negctrl_site329] | 7.3 ± 0.22
13 | CATACCATACATAAAACACACAAAATTTACATAATA [CACACA_site3100] | 7.71 ± 0.4
14 | TATAGTTTTATTATTTATGTGTTAAAATTATACAAG [TGCATGCA_negctrl_site246] | 7.46 ± 0.38
15 | TTCCTCTTAATATGTGCACACTAAATTATAACATAA [CACACA_site3260] | 10.19 ± 0.021
16 | TATAAATATATATGTACACACATATACATGTTGAAT [CACACA_site3118] | 7.79 ± 0.35
17 | TATAAACATAAATATACACACAAACATCTATGTATT [CACACA_site4804] | 7.67 ± 0.23
18 | AAAAAAAAATATCACACACACATAAATATAAACCAA [CACACA_site2279] | 7.84 ± 0.54
19 | AGGCACTTATAATAATGTACATAAATAAAAAGAAAA [XGTACX_site6037] | 7.89 ± 0.54
20 | TAAAACATCAAGGGGTGTACAAAAAAGATGAACAGG [XGTACX_site6929] | 8.48 ± 0.67
21 | AAAAAAAAAAAAACTACACACATAAAATATATTGTG [CACACA_site805] | 7.72 ± 0.52
22 | ATTGGGTTCATCAGCACACACAACATCATGTAATAA [CACACA_site5093] | 7.96 ± 0.54
23 | AGAGCATAATAAAACACACACATACATACATATATA [CACACA_site935] | 7.91 ± 0.28

Row | Sequence | gcPBM binding intensity (ln)
24 | TATGTAAAAACAGGCACACATATATCATATATATAT [CACACA_site619] | 9.055 ± 0.007
25 | TATGTATGCCTGTTTTGTACTTAAGAAAATGTTGCT [XGTACX_site8443] | 7.72 ± 0.51
26 | AAAAAAAAAAAAAAAAGTACATAATATAAAATCTAA [XGTACX_site6019] | 8.53 ± 0.52
27 | CATTATGTACAAAAAGTGCAATATATATTAACACTG | 11 ± 0.43
28 | TTATATATATATATATATATATATATATATATAAAT [GTGCAC_negctrl_site126] | 8.41 ± 0.23
29 | AACAAAATAAGAAAACGTACAAATGTTTCAAATTCT [XGTACX_site1544] | 7.62 ± 0.71
30 | TTTTCAAAGATATATACACACATGCATATTACGGTG [CACACA_site6505] | 8.24 ± 0.47
31 | TTAATAAATATCAATACACACACACTAATGTGAATA [CACACA_site9254] | 7.52 ± 0.27
32 | TTTTTGAGTGCACATACACACAGACATACATTTAAA [CACACA_site5813] | 10.8 ± 0.65
33 | TTCAATATACATATGTGTACTAAAATAAATAGAAAA [XGTACX_site5708] | 8.15 ± 0.42
34 | ATTACAACATTTTATACACACGTGATTATTAATTTT [CACACA_site5581] | 7.86 ± 0.58
35 | GGATTCAAAAAAAAAAATAAAAGTAAATAATAAATA [TGCATGCA_negctrl_site348] | 7.25 ± 0.56
36 | TAAATATATTTATACACACACACCAAAGCAATAGAT [CACACA_site7393] | 8.29 ± 0.42
37 | TATATTTCAGGGGGGAGTACAAATTTTTTTATATAA [XGTACX_site1600] | 11 ± 0.52
38 | TTTATGAAGTAAAAATATAAATTCACAAAGTTAAAA [CACACA_negctrl_site1476] | 7.49 ± 0.65
39 | AAGAACAGAACGTACACACACATATTTATATTTATA [CACACA_site7594] | 8.22 ± 0.21
40 | TAAGGAAAAAAAATATGTACTTATAGTTCCTTCTTT [XGTACX_site2202] | 7.63 ± 0.45
41 | ATTTGTAATATTAAATGTACAGGTAAGAAATATCAG [XGTACX_site1562] | 8.22 ± 0.18
42 | TTAATATATATATATATATATATATTTTTATTTTTT [CACACA_negctrl_site763] | 7.78 ± 0.26
43 | TGTATTAACAAAAAGGTGCGGATATATATAAAAAAT [GTGCAC_site9473] | 9.59 ± 0.13
44 | AAAATGTTATTGGAAAGTACAAAAAAAATTATATAA [XGTACX_site4074] | 7.76 ± 0.51
45 | CATATATAGATATATACACACATATATAAATAAATA [CACACA_site6759] | 7.6 ± 0.45
46 | ATAAAACGTACAATGGTGCATATAAATAATATATAT [GTGCAC_site9960] | 11 ± 0.52

Row | Sequence | gcPBM binding intensity (ln)
47 | TATGTATATTCTTTCAGTACACATAATGTTGTCATA [XGTACX_site8845] | 7.85 ± 0.45
48 | CATTAATATATATATACATGCACGTTTTAAAAAAAA [TGCATGCA_site875] | 9.1 ± 0.52
49 | ATGGGAATATAATTATGTACATATAAAAATTATAAA [XGTACX_site5336] | 7.75 ± 0.38
50 | TAATTATGCAGACACACACACACACGCAACTAAAAA [CACACA_site7253] | 8.31 ± 0.47
51 | AAAAAATATTTTTACAGTACATATATATAAAATGTT [XGTACX_site3215] | 7.79 ± 0.38
52 | TCATTTCACGGACACACACACACAATATATTTCCTT [CACACA_site6023] | 8.38 ± 0.63
53 | TAACAAAGGAAAGATATACACACGTATGCATGATAA [CACACA_site2520] | 7.87 ± 0.83
54 | TTTTTTTTTTAATTCGCACACTGTCTTCATACAATT [CACACA_site1379] | 8.62 ± 0.65
55 | ATATATATATATTTATGTACTTAATAATTTATTCAC [XGTACX_site7301] | 9.15 ± 0.085
56 | TGCAGTCTGGAGAAAAGTACATAGTATCTGGTAACC [XGTACX_site2019] | 7.88 ± 0.57
57 | TTTTTATTACATAATTAAAAAAAATAATAAAATAAA [XGTACX_negctrl_site249] | 7.33 ± 0.25
58 | TAAAAAATATAAACTGCACACACAAAAAAAAAAGAG [CACACA_site8379] | 9.3 ± 0.042
59 | AATTTAAAATAATATTGTACTTAGATATAAATATGA [XGTACX_site4198] | 7.54 ± 0.18
60 | TAATATCTAAAAAATATATTTTTTATTTTTTATTAA [CACACA_negctrl_site510] | 7.38 ± 0.6
61 | ATATCATTAAAAGGATGTACATATGTGTATACAATA [XGTACX_site871] | 8.26 ± 0.56
62 | TACATACATACATACACACACACATATATATACATA [CACACA_site853] | 8.88 ± 0.67
63 | ATGGTACACAAATATACATGCAATAATAAAAAAAAA [TGCATGCA_site879] | 8.11 ± 0.68
64 | CACACCCACCAACACACACACACACCCACCCATATA [CACACA_site366] | 8.03 ± 0.37
65 | TTATAAATGAATAAATGTACAAAATATATATATATA [XGTACX_site8829] | 9.39 ± 0.17
66 | CATAACATAAAATAGGTGCACAAAAATTGTAATTGA | 11.37 ± 0.021
67 | TTCAGTGTATACATATGTACATATATATATATATAT [XGTACX_site1621] | 9.18 ± 0.24
68 | ATTTTTATTTGTTACGCATGCATAAAAGTGCATACT [TGCATGCA_site547] | 9.44 ± 0.93
69 | TTGTAATATATGTATTGTACGCATATAACAATTATT [XGTACX_site3652] | 7.92 ± 0.13

Row | Sequence | gcPBM binding intensity (ln)
70 | AAAATACATAAATGTTCACACATTAAAAAGCAGAAG [CACACA_site5346] | 7.85 ± 0.62
71 | TATGTCAGATGAAAGGGTACATAATATAATATATTT [XGTACX_site8062] | 7.76 ± 0.47
72 | TTTATAAAGAAACACACACACATGTGAACATAAAAA [CACACA_site1908] | 7.92 ± 0.85
73 | TGTATGAAATATATTACACACATATATAATATATAT [CACACA_site793] | 7.79 ± 0.42
74 | GTGTAAATAAGGATATATAACAATCAACAAAACATA [CACACA_negctrl_site1759] | 7.9 ± 0.54
75 | ATACACAAAATTATTAAATCAATAAATATATGGTTT [CACACA_negctrl_site353] | 7.44 ± 0.48
76 | ATATTTTTCAAACATCGTACATTATGAGTTAAAATT [XGTACX_site584] | 7.71 ± 0.47
77 | TATATTTTCTATAGGTGTACTCCACATGCGGTGTTA [XGTACX_site7471] | 7.96 ± 0.13
78 | ATATTGATACATCCAATACACACTACATATAATGAT [CACACA_site1874] | 7.88 ± 0.59
79 | AATATATATAAATATTGTACAAAAATATATATATAT [XGTACX_site2910] | 9.04 ± 0.26
80 | ATATATGATGTAAAAGCACACATATATATATATATA [CACACA_site9330] | 9.57 ± 0.46
81 | TCCCTCTTTTTATTCTCACACACGTTTATATATAAA [CACACA_site1644] | 8.34 ± 0.58
82 | TATATAAACATATAAACATGCAATATATATATGTTA [TGCATGCA_site765] | 7.67 ± 0.56
83 | AAAAAAATTAAATCAAGTACTCATTCTTAAATTATA [XGTACX_site1274] | 7.32 ± 0.49
84 | AAAAATATATAACAAAGTACATATATATTTAGTAAT [XGTACX_site8791] | 7.43 ± 0.4
85 | GGAAAAAAACTTATGAGTACACATAAATATAGCACA [XGTACX_site6686] | 10.2 ± 0.54
86 | TGTAGGTATTATTATACACACATAAAAAAAAAAAAA [CACACA_site3598] | 8.04 ± 0.46
87 | TAAAATATTATAAAATGTACAAAACATATAAATATA [XGTACX_site5315] | 7.5 ± 0.4
88 | AAATTAAAAAGACATTCACACATTTTCATCTTAACA [CACACA_site5221] | 7.71 ± 0.64
89 | AAACATATATATATTATATATATATATATATATATG [GTGCAC_negctrl_site182] | 8.05 ± 0.35
